The whole screen tested about 110,000 compounds, of which about 230 (0.21%) showed an effect of 50% or more. This is one part of the list.
The compounds below were run against DPAP1 (Plasmodium falciparum, UniProt Q8IIJ9) (assay: primary screen, percent inhibition; read by cleavage of a fluorogenic dipeptide substrate; higher = more effect of the substance).
Set-up: species or system P. falciparum D10 trophozoite lysates; single well
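Further: 30 min substrate incubation versus DMSO and 10 µM JCP410 controls.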

Chain of DPAP1 (Q8IIJ9 whole entry, looked up): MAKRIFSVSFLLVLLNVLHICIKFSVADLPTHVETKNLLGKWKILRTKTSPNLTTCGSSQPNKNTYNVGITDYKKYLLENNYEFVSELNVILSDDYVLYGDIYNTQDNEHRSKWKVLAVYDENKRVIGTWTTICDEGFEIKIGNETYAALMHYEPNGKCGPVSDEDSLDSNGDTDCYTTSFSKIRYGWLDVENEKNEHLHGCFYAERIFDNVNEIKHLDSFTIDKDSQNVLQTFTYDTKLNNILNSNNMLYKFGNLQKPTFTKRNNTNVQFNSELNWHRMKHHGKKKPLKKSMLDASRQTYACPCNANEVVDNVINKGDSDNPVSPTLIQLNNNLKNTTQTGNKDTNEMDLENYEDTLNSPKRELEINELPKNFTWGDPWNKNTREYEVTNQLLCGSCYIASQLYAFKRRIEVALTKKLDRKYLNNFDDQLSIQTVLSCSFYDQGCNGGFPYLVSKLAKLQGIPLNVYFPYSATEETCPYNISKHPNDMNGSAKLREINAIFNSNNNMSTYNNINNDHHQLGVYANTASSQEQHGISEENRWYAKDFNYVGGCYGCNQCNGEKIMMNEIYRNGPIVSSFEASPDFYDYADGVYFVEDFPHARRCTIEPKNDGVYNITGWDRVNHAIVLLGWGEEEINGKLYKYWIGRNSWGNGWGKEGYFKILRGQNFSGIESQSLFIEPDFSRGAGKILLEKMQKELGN

SMILES	% Inhibition @ 10 uM [%]
CC(CC(NC(=O)OCc1ccccc1)C(=O)NCC#N)CC(C)(C)C (centres unmarked)	-1.41
CC(NC(=O)/C(=C\c1ccco1)NC(=O)c1ccc(C(C)(C)C)cc1)C(=O)O (centres unmarked)	-9.6
C=CC[C@@]1(C)C(=O)CC[C@@]23COC[C@@H]2CCC[C@@H]31	-0.988
Clc1ccc(-c2nn3c(-c4ccncc4)nnc3c3ccccc23)cc1	-1.35
CN(CCc1ccccc1)Cc1c[nH]c2ccccc12	-2.34
CCOc1ccc2nc(N3C(=O)c4cccc5cccc(c45)C3=O)sc2c1	5.55
CCCn1c(=O)c2sccc2n2c(CCCC(=O)N3CCN(C(=O)c4ccco4)CC3)nnc12	-2.44
CCOc1ccccc1C(=O)Nc1ccc(C)c(O)c1	0.632
CC1CC(C)CN(S(=O)(=O)c2ccc(-n3cccn3)cc2)C1 (centres unmarked)	6.91
O=C(CCn1nc(-c2ccc(Cl)cc2)ccc1=O)NCCN1CCOCC1	4.81
Cc1ccc(S(=O)(=O)c2nc(-c3cccc(Cl)c3)oc2N2CCOCC2)cc1	1.57
Cc1c(C)n(CC(O)CN2CCCCC2)c2ccccc12 (centres unmarked)	-5.06
COc1ccc(OC)c(C2C=C(c3ccc(C(C)C)cc3)Nc3ncnn32)c1 (centres unmarked)	1.86
CCOC(=O)N1CCC(N2CCN(c3ccc(Cl)cc3)CC2)CC1	-3.6
Cc1ccc(S(=O)(=O)c2nnn3c2nc(NCc2ccccc2)c2ccccc23)cc1C	-5.07
Cc1cccc(NC(=O)CCCN2C(=O)c3ccccc3C2=O)n1	-1.82
O=C(Nc1ccccc1)C1C(=O)N(c2ccccc2)c2ccccc21 (centres unmarked)	-1.46
CCn1cc(C2N3CC4(C(C)C)CN2CC(C(C)C)(C3)C4=O)c2ccccc21 (centres unmarked)	2.05
COc1ccc(N(CC(=O)Nc2cc(Cl)ccc2C)S(C)(=O)=O)cc1OC	-1.04
CCCN1CCC(NC2CCCCCC2)CC1	2.99
C=CCn1c(N2CCOCC2)nc2ccccc21	-1.11
CC(C)CC(NC(=O)OCc1ccccc1)C(=O)NC(CCc1ccccc1)C1OCCO1 (centres unmarked)	-3.97
CC1CCN(C(=O)CSc2nc3ccccc3[nH]2)CC1	-4.77
CC(C)Cn1c(CNC(=O)c2ccc(Cl)cc2)nc2ccccc21	-5.67

SMILES	% Inhibition @ 10 uM [%]
COc1ccc(NC(=O)Cn2nc(C(F)(F)F)cc2C2CC2)cc1Cl	-1.88
CCCN(CCC)S(=O)(=O)c1ccc(C(=O)Nc2sc3c(c2C(=O)OCC)CCCC3)cc1	-4.27
C1CNC(NCC23CC4CC(CC(C4)C2)C3)=N1	-1.29
CC(C)C1=NN2C(=N)/C(=C/c3ccc(Cl)cc3)C(=O)N=C2S1	0.685
CC1CNC2=C(C(=O)Nc3ccccc3)C(=O)CC(c3ccccc3)N21 (centres unmarked)	3.05
CCOc1ccccc1CNC(=O)c1nc(-c2cccc(F)c2)n2c1CCCCC2	-1.31
COC(=O)c1c(C)sc(C(c2ccc(OC)cc2)c2sc(C)c(C(=O)OC)c2O)c1O	-1.24
COc1cc2ccccc2cc1C(=O)Nc1ccc(NC(=O)c2cccs2)cc1	-11
CCCSc1ncc(Cl)c(C(=O)NCCc2ccc(OC)c(OC)c2)n1	4.47
Cc1ccc(S(=O)(=O)N(CC(=O)NC(C)(C)C)C2CCCCC2)cc1	0.924
c1cncc(-c2noc(C34CC5CC(CC(C5)C3)C4)n2)c1	-6.7
CCCOc1ccc(CN(C(=O)c2nc(SC)ncc2Cl)C2CCS(=O)(=O)C2)cc1 (centres unmarked)	-4.64
Cc1ccc(S(=O)(=O)n2c(SCC(=O)NCc3ccccc3)nc3ccccc32)cc1	6.58
COc1ccccc1CNC(=O)CN(C)S(=O)(=O)c1ccc2nc(C)sc2c1	-0.522
COC(=O)c1cc2occc2n1Cc1nc(-c2ccc(OC)cc2)oc1C	-2.18
COc1ccc(NC(=O)CN2C(=O)C3C4CCC(C4)C3C2=O)cc1 (centres unmarked)	4.84
CCCOc1ccc(C2C(C(=O)OCC)=CN(Cc3ccc(F)cc3)C=C2C(=O)OCC)cc1	-3.23
CC(C)CCNC(=O)c1ccc(CS(=O)(=O)Cc2ccc(Cl)cc2)o1	-4.97
CC(C)C[C@H](NC(=O)c1ccc(-c2csc(N=C(N)N)n2)cc1)C(=O)N[C@@H](Cc1c[nH]c2ccccc12)C(=O)O	6.03
O=C(Cn1c(-c2cccs2)cc2ccccc21)NCC1CCCO1 (centres unmarked)	-5.15
CC(C)(CNC(=O)c1oc(=O)c2ccccc2c1-c1ccccc1)N1CCCCC1	2.34
COC(=O)C1=CN(Cc2ccc(OC)cc2)C=C(C(=O)OC)C1c1ccc(O)cc1	-6.93
CCOc1ccc2nc(N3CCCC(C(=O)NC(C)c4ccc5c(c4)OCCO5)C3)sc2c1 (centres unmarked)	4.95
CCOC(=O)c1c(C)[nH]c(C)c1S(=O)(=O)N(C)CC(=O)Nc1nc2ccc(C)cc2s1	6.92

SMILES	% Inhibition @ 10 uM [%]
O=C(O)CSc1nnc(-c2cccs2)n1-c1cccc(C(F)(F)F)c1	1.15
COC(=O)c1c(NC(=O)c2ccccc2C)sc2c1CCC(C)C2 (centres unmarked)	7.63
CS(=O)(=O)N(CCc1ccccc1)CC(=O)Nc1ccc(Br)cc1F	2.13
CCn1cc(/C=C(\NC(=O)c2ccccc2OC)C(=O)NCCO)c2ccccc21	3.24
Cc1nc2ccn(Cc3cccs3)c(=O)c2cc1C(=O)N1CCN(C)CC1	-2.29
Oc1cc(Cc2ccccc2)nn1-c1nc2ccccc2s1	3.18
CCOC(=O)N1CCN(C(=O)CSCC(=O)Nc2nc(-c3ccc(C)cc3C)cs2)CC1	5.23
Cc1nn(CC(=O)NCCN2CCCCCC2)c(=O)c2cccn12	3.39
COc1ccccc1C1C(C#N)=C(N)Oc2cc3ccccc3cc21 (centres unmarked)	-1.06
CCOc1cc(C2C3=C(CC(C)(C)CC3=O)N(C)C3=C2C(=O)CC(C)(C)C3)ccc1OC	-7.9
COc1ccccc1[S+](O)c1c(C)cc(C)cc1C (centres unmarked)	4.26
Cc1ccc(C(C)C)c(OCC(=O)Nc2cccnc2Cl)c1	-3.34
CC12CCC(C(=O)N3CCN(C(=O)C45CCC(C)(C(=O)O4)C5(C)C)CC3)(OC1=O)C2(C)C	-4.19
NC(=O)c1cnn2c(C(F)(F)F)cc(-c3ccccc3)nc12	1.34
CCOc1ccc(CCNC(=O)c2nccnc2C(=O)O)cc1OCC	0.776
COc1ccc(S(=O)(=O)N(C(C)=O)c2ccc3oc(C)c(C(C)=O)c3c2)cc1	-20.8
CC(C)Oc1ccc(CNC(=O)Cn2c(=O)c3cccn3c3cccnc32)cc1	3.38
CCc1ccc(CNC(=O)C2CCCN(c3ncnc4onc(-c5ccc(F)cc5)c34)C2)cc1 (centres unmarked)	7.92
CCCNS(=O)(=O)c1cnccc1N1CCN(C(C)C)CC1	-1.88
CCCCCCN1C(=O)C(O)=C(C(=O)c2ccc(OC)cc2)C1c1ccccc1F (centres unmarked)	1.58
COc1cc(OC)cc(-c2nc3nc(C)c(CCC(=O)NCCN4CCOCC4)c(C)n3n2)c1	-0.465
COC(=O)C1=CN(Cc2ccc(Cl)cc2)C=C(C(=O)OC)C1c1ccc(OC)c(O)c1	0.219
Cc1ccccc1C(=O)Nc1c(-c2ccccc2)nc2ccccn12	-2.01
CCC1CCCCN1C(=O)C1CCN(S(=O)(=O)c2cccc3nsnc23)CC1 (centres unmarked)	-1.54

SMILES	% Inhibition @ 10 uM [%]
Cc1oc(-c2ccccc2F)nc1CS(=O)CC(=O)NCc1ccc2c(c1)OCO2 (centres unmarked)	0.689
CCN(Cc1ccccc1)S(=O)(=O)c1ccc(NC(C)=O)cc1	6.65
Cc1ccc(C(=O)CC(c2ccccc2)C(C#N)C#N)cc1 (centres unmarked)	1.13
COC(=O)C(NC(=O)c1ccccc1)=C1C=C(c2ccccc2)OC(c2ccccc2)=C1	-0.615
Cc1ccc(/C(=C\n2ccnc2)c2ccccc2)cc1	-6.92
O=C(c1cccc(Cl)c1)N1CCN(c2ccc(F)cc2)CC1	-7.5
O=C(NCCc1ccccc1)C1CCN(C(=O)c2sccc2-n2cccc2)CC1	-1.6
Cc1cc(C)c2c(n1)OC(N1CCOCC1)(C(F)(F)F)CC2=O (centres unmarked)	-0.403
O=c1ccn(Cc2ccccc2)c(=O)[nH]1	-3.14
O=C(NCCCCNC(=O)C1CCCCC1)C1CCCCC1	3.72
CCOC(=O)c1c(-c2ccc(Br)cc2)csc1N	13.1
COc1ccccc1NC(=O)c1c(O)c2ccccc2n(C)c1=O	1.83
CCN1CCC(N(C)CCN(C)C)CC1	3.48
COc1ccc(-n2nnnc2C2CCN(S(=O)(=O)c3cc(F)ccc3C)CC2)cc1	0.00706
COC(=O)C1=C(C)N(Cc2ccc(OC)cc2)C(=O)/C1=C\c1ccc(C(=O)OC)cc1	-1.26
O=C(c1cc2nc(-c3ccc(Br)cc3)cc(C(F)(F)F)n2n1)N1CCOCC1	3.49
CC(NC(=O)CCN1CCOCC1)C1COc2ccccc2O1 (centres unmarked)	-3.14
O=C(Cn1ccs/c1=N/C(=O)C(F)(F)F)c1ccccc1	-5.41
COc1ccc(S(=O)(=O)NCCc2cc3c(C)ccc(C)c3nc2O)cc1	0.205
c1cncc(CNc2nc(N3CCOCC3)nc(N3CCOCC3)n2)c1	3.39
Cc1ccc2oc(C(=O)Nc3sc4c(c3C(=O)NCC3CCCO3)CCCC4)cc(=O)c2c1 (centres unmarked)	6.56
CN1CCN(C(=O)c2c(NC(=O)c3ccco3)sc3c2CCC(C(C)(C)C)C3)CC1 (centres unmarked)	3.29
CCC(C(=O)NCCCN1CC(C)CC(C)C1)n1nc(C)c2sc3ccccc3c2c1=O (centres unmarked)	2.95

Source: article PMC6919601, “Identification of Plasmodium dipeptidyl aminopeptidase allosteric inhibitors by high throughput screening” (PLoS ONE, 2019)
